Experimental data taken from the supplement of paper PMC7580552.
Structures can show the parent of a compound that is named as a salt. This is one part of the list. Most values come without repeats; read them as rough.

system: Escherichia coli W3110; test: planktonic growth (OD600) relative to untreated control; higher = more growth; conditions: 10 µM; 20-24 h; 30 °C; TB
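Further: stationary (unshaken) cultures in 96-well plates, started at OD600 0.05 from mid-exponential cells, with compounds supplied from DMSO stocks.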

Structure (SMILES)	planktonic growth
C=CC[C@]1(O)CC[C@H]2[C@@H]3CCC4=CC(=O)CCC4=C3C=C[C@@]21C [Altrenogest]	94%
CC(Cc1ccc(O)cc1)NCC(O)c1cc(O)cc(O)c1 (stereo unspecified) [Fenoterol hydrobromide]	102%
C1CCc2nnnn2CC1 [Pentylenetetrazole]	105%
CNCC(O)c1ccc(O)cc1 (racemic) [(+,-)-Synephrine]	107%
C[C@]12CC[C@@H](O)C[C@@H]1CC[C@@H]1[C@@H]2CC[C@]2(C)C(=O)CC[C@@H]12 [Androsterone]	68%
COc1ccc2c(c1)[C@]13CCCC[C@@H]1[C@H](C2)N(C)CC3 [Dextromethorphan hydrobromide monohydrate]	96%
S=C(NC1CCCCC1)N1CCC(c2cnc[nH]2)CC1 [Thioperamide maleate]	105%
O=c1[nH]c2ccccc2n1CCCN1CCC(n2c(=O)[nH]c3cc(Cl)ccc32)CC1 [Domperidone]	95%
O=C([O-])c1ccccc1-c1c2cc(Br)c(=O)cc-2oc2[c]([Hg+])c([O-])c(Br)cc12.[Na+].[Na+].[OH-] [Merbromin]	85%
CC(C)[N+](C)(CCC(C(N)=O)(c1ccccc1)c1ccccc1)C(C)C [Isopropamide iodide]	108%
C#C[C@]1(O)CC[C@H]2[C@@H]3CCC4=CC(=O)CC[C@]4(C)[C@H]3CC[C@@]21C [Ethisterone]	93%
CC(C)CC(N(C)C)C1(c2ccc(Cl)cc2)CCC1 (stereo unspecified) [Sibutramine hydrochloride]	88%
COc1ccc(CN2CCNCC2)c(OC)c1OC [Trimetazidine dihydrochloride]	85%
C[C@]12CC[C@H]3[C@@H](CCC4=CC(=O)CC[C@@H]43)[C@@H]1CC[C@@H]2O [Nandrolone]	100%
CN[C@@H]1C[C@@H](c2ccc(Cl)c(Cl)c2)c2ccccc21 [Indatraline hydrochloride]	113%
O=[N+]([O-])O[C@@H]1CO[C@H]2[C@@H]1OC[C@@H]2O [Isosorbide mononitrate]	100%
CC(C)N(CCC(C(N)=O)(c1ccccc1)c1ccccn1)C(C)C (stereo unspecified) [Disopyramide]	91%
C[C@H](N)[C@H](O)c1ccc(O)c(O)c1 [Levonordefrin]	92%
CC(CCc1ccccc1)NC(C)C(O)c1ccc(O)cc1 (stereo unspecified) [Nylidrin]	94%
COc1cccc(C2(O)CCCCC2CN(C)C)c1 (stereo unspecified) [Tramadol hydrochloride]	110%
CC(=O)OC1CN2CCC1CC2 (stereo unspecified) [Aceclidine Hydrochloride]	103%

Structure (SMILES)	planktonic growth
C[N+](C)(C)CCCCCCCCCC[N+](C)(C)C [Decamethonium bromide]	106%
CN1C[C@H](C(=O)N[C@]2(C)O[C@@]3(O)[C@@H]4CCCN4C(=O)[C@H](Cc4ccccc4)N3C2=O)C[C@@H]2c3cccc4[nH]cc(c34)C[C@H]21 [Dihydroergotamine tartrate]	103%
C[N+]1(C)[C@@H]2CC[C@H]1C[C@@H](OC(=O)C(CO)c1ccccc1)C2 (stereo partly specified) [Methylatropine nitrate]	92%
CCC(=O)O[C@@](Cc1ccccc1)(c1ccccc1)[C@@H](C)CN(C)C [Levopropoxyphene napsylate]	92%
CC[C@@]1(O)C(=O)OCc2c1cc1n(c2=O)Cc2cc3ccccc3nc2-1 [Camptothecine (S,+)]	96%
COc1ccc(CCN)cc1OC [Homoveratrylamine]	106%
CCCN1C[C@H](CSC)C[C@@H]2c3cccc4[nH]cc(c34)C[C@H]21 [Pergolide mesylate]	93%
COc1ccc(C(=O)N2CCCC2=O)cc1 [Aniracetam]	98%
CC[C@@H](C(N)=O)N1CCCC1=O [Levetiracetam]	107%
C[N+]1(C)CCOC(O)(c2ccc(-c3ccc(C4(O)C[N+](C)(C)CCO4)cc3)cc2)C1 (stereo unspecified) [Hemicholinium bromide]	98%
CC[C@H](C)[C@H]1O[C@]2(C=C[C@@H]1C)C[C@@H]1C[C@@H](C/C=C(\C)[C@@H](O[C@H]3C[C@H](OC)[C@@H](O[C@H]4C[C@H](OC)[C@@H](O)[C@H](C)O4)[C@H](C)O3)[C@@H](C)/C=C/C=C3\CO[C@@H]4[C@H](O)C(C)=C[C@@H](C(=O)O1)[C@]34O)O2.CO[C@H]1C[C@H](O[C@H]2[C@H](C)O[C@@H](O[C@@H]3/C(C)=C/C[C@@H]4C[C@@H](C[C@]5(C=C[C@H](C)[C@@H](C(C)C)O5)O4)OC(=O)[C@@H]4C=C(C)[C@@H](O)[C@H]5OC/C(=C\C=C\[C@@H]3C)[C@]54O)C[C@@H]2OC)O[C@@H](C)[C@@H]1O [Avermectin B1]	97%
C[C@]12CCC(=O)C=C1CC[C@@H]1[C@@H]2C(=O)C[C@]2(C)C(=O)CC[C@@H]12 [Adrenosterone]	89%
CCN[C@@H](C)Cc1cccc(C(F)(F)F)c1 [Dexfenfluramine hydrochloride]	107%
CN1[C@@H]2CC[C@H]1C[C@@H](OC1c3ccccc3CCc3ccccc31)C2 [Deptropine citrate]	90%
NCC(O)c1ccc(O)cc1 (racemic) [(+,-)-Octopamine hydrochloride]	97%
CN(C)C(=O)Oc1cc(OC(=O)N(C)C)cc(C(O)CNC(C)(C)C)c1 (stereo unspecified) [Bambuterol hydrochloride]	110%
CCn1cc(C(=O)O)c(=O)c2cc3c(cc21)OCO3 [Oxolinic acid]	28%
C[C@]12CC[C@H](O)C[C@@H]1CC[C@@H]1[C@@H]2CC[C@]2(C)C(=O)CC[C@@H]12 [Epiandrosterone]	104%
CCC1(c2ccc(N)cc2)CCC(=O)NC1=O (stereo unspecified) [Glutethimide, para-amino]	99%
CC[C@@]1([C@@H]2O[C@@H]([C@H]3O[C@@](O)(CO)[C@H](C)C[C@@H]3C)C[C@@H]2C)CC[C@H]([C@]2(C)CC[C@]3(C[C@H](O)[C@@H](C)[C@@H]([C@@H](C)[C@@H](OC)[C@H](C)C(=O)O)O3)O2)O1 [Monensin sodium salt]	94%
